# Hit rate of the full screen: of about 390,000 compounds, about 4,700 (1.2%) were called active. About 4% were inconclusive and are not listed. Calls come from the whole dose curve; as a rule, active = well fitted inhibition curve with a large enough effect; inconclusive = small, poorly fitted or top-dose-only effect, or another doubt; inactive = no such curve, though single readings can be large or run the other way. The entries are a selection whose mix differs from that of the whole data set. Some structures have more than one record in an assay (separate samples or runs), and their calls can disagree.
# Molecular target: DNA polymerase eta (Homo sapiens) (UniProt Q9Y253)
# Experiment: qHTS for Inhibitors of Polymerase Eta
# Settings: recombinant Pol eta, fluorescent DNA replication assay; series mostly up to 114 µM; activity change, negative = inhibition: at the top concentration
# How it was run: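 Fluorescent replication assay: 50 nM final substrate added after a 15 min room-temperature compound preincubation with 10 nM enzyme. Signal taken at 0 min and again at 10 min.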
# % is set by controls: 0 for no effect and ±100 for the full control effect; potency is the fitted concentration of half-maximal effect.
# UniProt Q9Y253, sequence (Q9Y253 whole entry, looked up): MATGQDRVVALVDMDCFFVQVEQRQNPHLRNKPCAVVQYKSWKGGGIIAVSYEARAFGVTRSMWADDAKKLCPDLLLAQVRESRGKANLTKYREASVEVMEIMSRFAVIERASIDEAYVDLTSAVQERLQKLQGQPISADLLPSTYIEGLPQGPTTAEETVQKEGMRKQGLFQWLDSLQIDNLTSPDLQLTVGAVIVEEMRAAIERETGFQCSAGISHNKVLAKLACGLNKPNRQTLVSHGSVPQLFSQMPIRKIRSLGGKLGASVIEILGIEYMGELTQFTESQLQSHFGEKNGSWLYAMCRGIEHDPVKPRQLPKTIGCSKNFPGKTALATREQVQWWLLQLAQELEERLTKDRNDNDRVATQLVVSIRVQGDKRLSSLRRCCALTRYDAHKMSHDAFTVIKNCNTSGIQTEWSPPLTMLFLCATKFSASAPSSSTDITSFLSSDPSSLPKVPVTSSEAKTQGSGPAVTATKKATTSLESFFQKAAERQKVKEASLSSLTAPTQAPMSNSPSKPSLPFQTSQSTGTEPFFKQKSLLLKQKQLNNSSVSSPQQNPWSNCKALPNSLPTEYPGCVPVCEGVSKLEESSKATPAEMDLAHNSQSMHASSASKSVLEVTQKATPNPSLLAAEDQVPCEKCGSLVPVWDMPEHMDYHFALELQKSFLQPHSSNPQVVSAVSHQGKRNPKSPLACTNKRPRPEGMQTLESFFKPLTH
Compound,"activity change, negative = inhibition",Potency
CCOC(=O)N1CCN(c2ncnc3c2[nH]c2ccc(F)cc23)CC1,inactive: -8.84%,–
CCOc1ccc(-n2nc(CO)c(C(=O)NCc3ccc(Cl)cc3)n2)cc1,inactive: 15.1%,–
Cc1cc(-c2n[nH]c(=S)n2/N=C/c2ccco2)n[nH]1,inactive: 31.1%,–
C[C@H]1CN([C@@H](C)CO)C(=O)c2cccc(NC(=O)Nc3ccc(C(F)(F)F)cc3)c2O[C@@H]1CN(C)S(=O)(=O)c1ccccc1,inactive: -16.1%,–
COc1ccccc1CC(=O)Nc1cccc(C(=O)Nc2nccs2)c1,inactive: 24.2%,–
O=C(CC1CS(=O)(=O)CC1CC(=O)Nc1ccc2c(c1)OCCO2)Nc1ccc2c(c1)OCCO2 (configuration not stated),inactive: 32.9%,–
CCCCCCN1C[C@H](n2cc(-c3ccc(F)cc3)nn2)[C@@H](O)C[C@@H]1c1ccccc1,inactive: -16%,–
NNc1cc([N+](=O)[O-])cc2c1C(=O)N(Cc1ccccc1)S2=O (configuration not stated),–,active: 44.7 µM
CCOC(=O)c1ccccc1NC(=O)c1ccc2c(SCC(=O)O)c3c(nc2c1)CCCC3,–,active: 50.1 µM
O=C(Nc1nnc(S(=O)(=O)N2CCCCCC2)s1)c1cccc(Br)c1,inactive: -3.69%,–
Cc1ccccc1N1C(=O)N(c2cccc(C(F)(F)F)c2)C2CS(=O)(=O)CC21 (configuration not stated),inactive: -3%,–
CCc1nnc2c(Nc3cccc(C(C)=O)c3)nc3ccccc3n12,inactive: 17.6%,–
CCN1C(=O)[C@H]2[C@@H](c3ccc(-c4ccc(C(C)=O)cc4)c(OC)c3)N3CCCC[C@@]3(C(=O)OC)[C@H]2C1=O,inactive: -10.1%,–
COc1cc(Cl)c(C)cc1NC(=O)c1ccc2c(SCC(=O)O)c3c(nc2c1)CCCC3,inactive: -15.9%,–
CN1CCN(c2ccc([N+](=O)[O-])cc2C(=O)N2CCOCC2)CC1,inactive: 1.31%,–
Cc1ccc([C@H]2C(C#N)=C(N)Oc3cc(C)oc(=O)c32)o1,inactive: -22.4%,–
COc1cc(/C=C(/C#N)c2nc3ccccc3[nH]2)ccc1OC(=O)c1ccco1,inactive: -6.6%,–
O=C(O)c1ccc(CSc2n[nH]c(-c3ccco3)n2)cc1,–,active: 11.2 µM
Cc1ccc(-c2ccc(=O)n(Cc3cc(C)ccc3C)n2)cc1,inactive: -18.7%,–
CC(=O)Oc1cc(C(=O)OCC(=O)NC23CC4CC(CC(C4)C2)C3)cc(OC(C)=O)c1OC(C)=O,–,active: 3.16 µM
COC(=O)COc1ccc(C2Nc3c(Cl)ccc(C(=O)O)c3C3C=CCC32)cc1 (configuration not stated),–,active: 28.2 µM
O=C(CN1C(=O)COc2ccc(S(=O)(=O)N3CCCCCC3)cc21)NCc1ccc(F)cc1,inactive: -17.5%,–
O=C(CSc1ncn(-c2ccccc2)n1)N1CCN(c2ccccc2)CC1,inactive: 10.7%,–
CSc1nc(N(C)CCO)c2sc3nc(-c4ccco4)c4c(c3c2n1)CCC4,–,active: 8.91 µM

Compound,"activity change, negative = inhibition",Potency
CCCN(CC1CC1)c1nc(C)nc(Nc2c(Cl)cc(Cl)cc2Cl)c1Cl,inactive: -9.45% [at 57.1 µM],–
Cc1c(C(=O)O)sc2nc(/C=C/c3cccc(F)c3)[nH]c(=O)c12,–,active: 79.4 µM
O=C(Nc1cccc(C2=NCCN2)c1)Nc1cccc(C2=NCCN2)c1,–,active: 22.4 µM
COCCOC(=O)C1=C(C)NC(=O)NC1c1ccco1 (configuration not stated),–,active: 79.4 µM
O=C(CSc1nc2c([nH]c3ccccc32)c(=O)n1-c1cccc(Cl)c1)N1CCOCC1,inactive: -9.36%,–
CCCCCc1c2c(cc(O)c1C(=O)O)OC(=O)c1cc(C(=O)CCCC)c(OC)cc1O2,–,active: 79.4 µM
CC(C)[C@H](NC(=O)C1CC(=O)N(c2ccc3c(c2)OCO3)C1)C(=O)NC1CCCC1 (some centres not stated),–,active: 31.6 µM
O=C(CN1N=C(c2ccccc2)CCC1=O)NCc1ccc(F)cc1Cl,inactive: 14.1%,–
COC(=O)c1cc(C)cc(=O)o1,inactive: 34.2%,–
CCC(=O)c1cc(-c2nc3ccccc3n2C)n(C)c1,inactive: 8.94%,–
COCc1cc(C)nc2sc3c(c12)NC(c1ccccc1C(=O)O)N(c1ccc(OC)cc1)C3=O (configuration not stated),inactive: 16.2%,–
CN(C)c1ccc(NC(=O)CSCc2nc3c(nnn3Cc3ccc(F)cc3)c(=O)[nH]2)cc1,–,active: 50.1 µM
C=CC[C@H](CC(=O)N(CCO)Cc1ccccc1)C(=O)N[C@@H](COC(=O)[C@H](CC=C)CC(=O)OC(C)(C)C)Cc1c[nH]c2ccccc12,inactive: -22.2%,–
O=C(Cc1cc(=O)[nH][nH]1)N/N=C/C(Cl)=C/c1ccccc1,inactive: -13.3%,–
CCN1C(=O)[C@@H]2[C@@H](c3ccc(-c4ccccc4)cc3)N3CCCC[C@@]3(C(=O)OC)[C@@H]2C1=O,inactive: -16.4%,–
Nc1ncnc(Nc2ccc(F)c(Cl)c2)n1,inactive: 16.9%,–
O=C(c1cc(O)c(O)c([N+](=O)[O-])c1)c1ccccc1F,inactive: -9.05%,–
Cc1c(Cl)cccc1N=Cc1ccc([N+](=O)[O-])s1,–,active: 89.1 µM
Cc1c(CCC(=O)NCCCCCC(=O)O)c(=O)oc2cc3occ(-c4ccccc4)c3cc12,–,active: 22.4 µM
CCN(C(=O)C(C)N1C(=O)/C(=C/c2ccco2)SC1=S)C1CCS(=O)(=O)C1 (configuration not stated),–,active: 15.8 µM
O=C(NCc1nc2ccccc2[nH]1)C1=C[C@@H](C2CCCCC2)C[C@@H](OCc2ccc(CO)cc2)O1,inactive: -9.86%,–
NC[C@H](O)c1ccc(O)c(O)c1,–,inactive
Cc1cc2oc(C(=O)Nc3ccc(S(=O)(=O)Nc4onc(C)c4C)cc3)cc(=O)c2cc1C,–,active: 79.4 µM

# Source: PubChem BioAssay AID588591 (National Center for Advancing Translational Sciences (NCATS), 2011)
